SMILES strings stand for the structures. Several values for one entry are separate records, joined by “and”; a condition that tells them apart may be missing. Equal values may be shown once. Where a name gives a salt, the structure may show the parent alone. ± gives the standard deviation of the averaged measurements. Whole data set: some 3,200 compounds, median “nuclei count (viability) relative to DMSO” near 99, cut for the lowest 2% near 16. The list shows a part of the results.

The assay deals with U2OS. Briefly: nuclei count (viability) relative to DMSO (% of DMSO); higher = more viable cells. Particulars: 10 µM; 24 h. Here is the method:
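Primary image-based screen in U2OS cells: compounds at 10 uM for 24 h, then a 1 h o-propargyl-puromycin (OPP) pulse, click labelling, and high-throughput microscopy. Mean cytoplasmic OPP intensity and nuclei count were normalised to DMSO wells within each plate (DMSO = 100) and averaged over triplicate plates.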
`CNCCc1ccccn1` [Betahistine mesylate] gave a nuclei count of 115.
Turning to `Cc1nc2c([nH]1)-c1ccccc1N(C(=O)c1ccc(NC(=O)c3ccccc3-c3ccccc3)cc1)CC2` [Conivaptan HCl (Vaprisol)], the nuclei count worked out at 101.
The figure for `c1ccc2c(CCNc3ccc(Nc4ccncc4)cc3)c[nH]c2c1` is 41.2; for `CC(C)CCNC(=O)[C@H](CC(C)C)NC(=O)[C@H]1O[C@@H]1C(=O)O` it is 108; for `NCCCCCC(=O)O` [Aminocaproic acid] it is 88.
In the case of `CN(C)C(=N)NC(=N)N` [Metformin hydrochloride] it was 103; in that of `COc1c(C)cnc(Cn2cnc3c(Cl)nc(N)nc32)c1C`, 49.7.
The figure for `COc1ccc2c(Oc3ccc(NC(=O)c4c(C)n(CC(C)(C)O)n(-c5ccccc5)c4=O)nc3)ccnc2c1` is 94.2 ± 11; for `Nc1nccc(Oc2ccc(NC(=O)c3c[nH]cc(-c4ccc(F)cc4)c3=O)cc2F)c1Cl` it is 90.3 ± 8.4; for `CCN(CC)C(=O)c1ccc(O)c(OC)c1` [Ethamivan] it is 108.
`Cc1noc(NS(=O)(=O)c2cccc3c(N(C)C)cccc23)c1C`: the nuclei count is 102.
The figure for `C[C@H]1[C@H](C)CC[C@]2(C(=O)O)CC[C@]3(C)C(=CC[C@@H]4[C@@]5(C)CC[C@H](O)C(C)(C)[C@@H]5CC[C@]43C)[C@H]12` [Ursolic acid (Malol)] is 80.6; for `NC(=O)Nc1cc(-c2cccc(F)c2)sc1C(=O)N[C@H]1CCCNC1` it is 7.62.
The figure for `O=C(c1ccc(F)cc1)C1CCN(CCn2c(=O)[nH]c3ccccc3c2=O)CC1` [Ketanserin tartrate] is 109; for `O=C(c1ccc(F)cc1)C1CCN(CCn2c(=O)[nH]c3ccccc3c2=O)CC1` [Ketanserin tartrate hydrate] it is 102; for `Cc1cc2nc3c(=O)[nH]c(=O)nc-3n(C[C@H](O)[C@H](O)[C@H](O)CO)c2cc1C` [Riboflavin (Vitamin B2)] it is 112.
`CCCOc1ccc2[nH]c(NC(=O)OC)nc2c1` [Oxibendazol] yielded a nuclei count of 25.9.
The figure for `CCCOc1ccc2[nH]c(NC(=O)OC)nc2c1` [Oxibendazole] is 35.5.
In the case of `O=C1NC(=O)c2cc(Nc3ccccc3)c(Nc3ccccc3)cc21` it was 96.2.
In the case of `CC(=O)O[C@@H]1C[C@H]2C(C)(C)C(=O)C=C[C@]2(C)[C@H]2CC[C@@]3(C)[C@H](c4ccoc4)OC(=O)[C@H]4O[C@]43[C@@]21C` [Gedunin] it was 85.6.
The compound `O=C(O)CCc1ccc(NCc2cccc(Oc3ccccc3)c2)cc1` registered a nuclei count of 90.2.
The figure for `Clc1ccc2c(c1)CCc1cccnc1C2=C1CCNCC1` [Desloratadine] is 95.3; for `O=C1NCC2(CCN(CCc3ccccc3)CC2)O1` [Fenspiride hydrochloride] it is 89.3; for `CCS(=O)(=O)N1CC(CC#N)(n2cc(-c3ncnc4[nH]ccc34)cn2)C1` it is 99.7.
The compound `CN(CCCN1c2ccccc2CCc2ccccc21)CC(=O)c1ccc(Cl)cc1` [Lofepramine] returned a nuclei count of 107.
The figure for `CN(C)CCOC(c1ccccc1)c1ccccc1.Cn1c(=O)c2[nH]c(Cl)nc2n(C)c1=O` [Dimenhydrinate] is 108; for `CC(=O)OCCN1C(=O)c2c(C)nc3ccc(S(=O)(=O)N4CCOCC4)cc3c2C1=O` [Ivachtin] it is 110; for `CCOc1nc2cccc(C(=O)O)c2n1Cc1ccc(-c2ccccc2-c2nnn[nH]2)cc1` [Candesartan] it is 102.
The figure for `CCOc1nc2cccc(C(=O)O)c2n1Cc1ccc(-c2ccccc2-c2nnn[nH]2)cc1` [Candesartan (Atacand)] is 107; for `O=c1[nH]cnc2nc[nH]c12` [Hypoxanthine] it is 86.9; for `C=CC(=O)Nc1cccc(Oc2nc(Nc3ccc(N4CCN(C)CC4)cc3)ncc2Cl)c1` it is 6.24.
The figure for `O=C[C@@H]1CCCN1C(=O)[C@@H]1CCCN1C(=O)OCc1ccccc1` [Z-Prolyl-prolinal] is 95.7; for `C[C@@](Cc1ccc(O)c(O)c1)(NN)C(=O)O` [Carbidopa] it is 90.5.
Compound `CC1OC2(CS1)CN1CCC2CC1` (stereo not drawn) [Cevimeline hydrochloride] came in with a nuclei count of 101.
As for `NC[C@@H]1O[C@H](C23CC4CC(CC(C4)C2)C3)Cc2c1ccc(O)c2O`, the nuclei count is 84.2.
In the case of `CC1CCN(CC[C@H]2CCCN2S(=O)(=O)c2cccc(O)c2)CC1` it was 99.6 and 103.
On to `Nc1ncnc2c1ncn2[C@@H]1O[C@H](CO)[C@@H](O)[C@@H]1O` [Vidarabine], for which the nuclei count amounted to 100.
In the case of `CCCCc1oc2ccc(NS(C)(=O)=O)cc2c1C(=O)c1ccc(OCCCN(CCCC)CCCC)cc1` [Dronedarone HCl (Multaq)] it was 59.4; in that of `CCC1(c2ccccc2)C(=O)NCNC1=O` [Primidone], 98.55 ± 0.35; in that of `CCCCCCCCCC(=O)N[C@@H](Cc1c[nH]c2ccccc12)C(=O)N[C@H](CC(N)=O)C(=O)N[C@@H](CC(=O)O)C(=O)N[C@@H]1C(=O)NCC(=O)N[C@@H](CCCN)C(=O)N[C@@H](CC(=O)O)C(=O)N[C@H](C)C(=O)N[C@@H](CC(=O)O)C(=O)NCC(=O)N[C@H](CO)C(=O)N[C@@H]([C@H](C)CC(=O)O)C(=O)N[C@@H](CC(=O)c2ccccc2N)C(=O)O[C@@H]1C` [Daptomycin], 110.
The figure for `CC(=O)OC[C@H]1O[C@@H]([S-])[C@H](OC(C)=O)[C@@H](OC(C)=O)[C@@H]1OC(C)=O.CCP(CC)CC.[Au+]` [Auranofin] is 13.4; for `COc1cc(Nc2c(C#N)cnc3cc(OCCCN4CCN(C)CC4)c(OC)cc23)c(Cl)cc1Cl` [Bosutinib (SKI-606)] it is 59.3 ± 30.
For `CN(C)CCC(c1ccc(Br)cc1)c1ccccn1` (stereo not drawn) [Brompheniramine maleate], the nuclei count came to 102.
In the case of `COc1ccc(Cl)cc1NC(=O)Nc1cc(C)nc2ccccc12` it was 94.7 ± 12.
Regarding `c1ccc(-c2ccc(C(c3ccccc3)n3ccnc3)cc2)cc1` (stereo not drawn) [Bifonazole], the nuclei count is 117.
In the case of `Oc1c(Cl)cc(Cl)c2cccnc12` [Chloroxine] it was 88.9.
Compound `O=C1CC[C@@H](C(=O)N2CSC[C@H]2C(=O)O)N1` [Pidotimod] registered a nuclei count of 96.
In the case of `C=CC(=O)Nc1cccc(Sc2nc(Nc3ccc(N4CCN(C)CC4)cc3)ncc2Cl)c1` it was 13.6; in that of `CCCc1cc(C)[nH]c(=O)c1CNC(=O)c1cc(-c2ccnc(N3CCN(C)CC3)c2)cc2c1cnn2C(C)C`, 104.
Turning to `CN(CCCCCCCCCCN(C)C(=O)Oc1cccc([N+](C)(C)C)c1)C(=O)Oc1cccc([N+](C)(C)C)c1` [Demecarium bromide], the nuclei count was determined as 87.2.
The figure for `CC(=O)N(CC(O)CO)c1c(I)c(C(=O)NCC(O)CO)c(I)c(C(=O)NCC(O)CO)c1I` (stereo not drawn) [Iohexol] is 100; for `COC(=O)Nc1nc2cc(Sc3ccccc3)ccc2[nH]1` [Fenbendazole (Panacur)] it is 28.6; for `COC(=O)Nc1nc2cc(Sc3ccccc3)ccc2[nH]1` [Fenbendazole] it is 24.1.
In the case of `CC(C)(C)c1cc(C(C)(C)C)c(NC(=O)c2c[nH]c3ccccc3c2=O)cc1O` [Ivacaftor (VX-770)] it was 103; in that of `Cc1ccc([C@@H]2O[C@H](CO)[C@@H](O)[C@H](O)[C@H]2O)cc1Cc1ccc(-c2ccc(F)cc2)s1` [Canagliflozin], 92.7.
For `CC(C)NC[C@@H](C(=O)N1CCN(c2ncnc3c2[C@H](C)C[C@H]3O)CC1)c1ccc(Cl)cc1`, the nuclei count came out at 92.8.
On to `CC(C)NC[C@@H](C(=O)N1CCN(c2ncnc3c2[C@H](C)C[C@H]3O)CC1)c1ccc(Cl)cc1` [Ipatasertib (GDC-0068)], for which the nuclei count came out at 90.8.
`CN1CCN(CC(=O)N2c3ccccc3C(=O)Nc3cccnc32)CC1` [Pirenzepine dihydrochloride] had a nuclei count of 99.
The compound `Cn1c(=O)c2c(ncn2CC2OCCO2)n(C)c1=O` [Doxofylline] came in with a nuclei count of 98.7.
Compound `Oc1cc2c(cc1O)C(c1ccccc1)CNCC2` (stereo not drawn) gave a nuclei count of 96.6.
In the case of `COCC(=O)NC/C=C/c1ccc2ncnc(Nc3ccc(Oc4ccc(C)nc4)c(C)c3)c2c1` it was 99.1; in that of `CCCCC(=O)N(Cc1ccc(-c2ccccc2-c2nnn[nH]2)cc1)[C@H](C(=O)O)C(C)C` [Valsartan (Diovan)], 85.3; in that of `CC(=O)[C@H]1[C@H](C#N)C[C@H]2[C@@H]3CC=C4C[C@@H](O)CC[C@]4(C)[C@H]3CC[C@@]21C` [Pregnenolone-16(alpha)-carbonitrile], 98.4.
`OC(CCN1CCCCC1)(c1ccccc1)c1ccccc1` [Pridinol methanesulfonate salt] registered a nuclei count of 99.2.
In the case of `COc1cc(Nc2ncc3c(n2)-c2ccc(Cl)cc2C(c2c(F)cccc2OC)=NC3)ccc1C(=O)O` [MLN8237 (Alisertib)] it was 47.4; in that of `CCc1ccc(/C=C2/SC(=S)NC2=O)cc1`, 98.8; in that of `Cc1ccc(Nc2nccc(N(C)c3ccc4c(C)n(C)nc4c3)n2)cc1S(N)(=O)=O` [Pazopanib], 91.6.
The figure for `Cc1ccc(Nc2nccc(N(C)c3ccc4c(C)n(C)nc4c3)n2)cc1S(N)(=O)=O` [Pazopanib HCl] is 97.5.
The figure for `CC(=Nc1ccccc1N)c1c(C)cc(=O)n(O)c1O` is 92.3; for `CCN(CC)CCNC(=O)c1cc(Br)c(N)cc1OC` [Bromopride] it is 86.4; for `C=CCNc1ncnc2ccc(Br)cc12` it is 108.
Consider `OCC(CO)N[C@H]1C[C@](O)(CO)[C@@H](O)[C@H](O)[C@H]1O` [Voglibose], for which the nuclei count was determined as 92.8.
Take `Nc1cc(C(F)(F)F)c(-c2cc(N3CCOCC3)nc(N3CCOCC3)n2)cn1`: the nuclei count is 23.8.
The figure for `Cc1c(C(=O)Nc2ccc(N3C[C@@H](C)O[C@@H](C)C3)nc2)cccc1-c1ccc(OC(F)(F)F)cc1` [LDE225 (NVP-LDE225, Erismodegib)] is 101; for `Cc1ccc(Sc2cncc3sc(C(N)=O)cc23)cc1` it is 92.7; for `CC(C)NNC(=O)c1ccncc1` [Iproniazide phosphate] it is 104.
In the case of `N[C@H](C(=O)O)c1ccc(C(=O)O)c(O)c1` [(S)-4-Carboxy-3-hydroxyphenylglycine] it was 102.
The compound `Cc1cnc(NC(=O)Nc2cc(Br)c(C)cc2OC[C@@H]2CNCCO2)cn1` showed a nuclei count of 58.6.

The values are drawn from the supplement of paper PMC8183993.
